Assay results published in PubChem BioAssay AID1508624 (National Center for Advancing Translational Sciences (NCATS), 2021).
Out of some 48,000 compounds screened, about 120 (0.25%) were called active. About 4% were inconclusive and are not listed. Calls come from the whole dose curve; as a rule, active = well fitted activation curve with a large enough effect; inconclusive = small, poorly fitted or top-dose-only effect, or another doubt; inactive = no such curve, though single readings can be large or run the other way. The list shows a part of the results.

Assay: Primary qHTS for Identification of Small Molecule Activators of Huntingtin-Antisense Promoter Activity; note: nearly all actives have a fitted effect of over 55% in size
Conditions: HEK293 HTT-AS promoter firefly luciferase reporter, 24 h; series mostly up to 57.5 µM; activity change, positive = activation: at the top concentration
Outline: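 HEK293 luciferase promoter-reporter cells (2,500/well) plated 24 h, then compounds added at up to 57.5 uM final for 24 h at 37 °C. Firefly luminescence by Dual-Glo, normalized to vehicle (0%) and zero RLU (-100%).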

Activity change, positive = activation, inactive:
O=C(CCC1N=C2c3ccccc3N=C(SCc3cccc(Cl)c3)N2C1=O)N1CCN(c2ccccc2)CC1 (stereo unspecified) -15.2%
COc1ccc(C(=O)c2c(N)c(-c3nc(-c4ccc(OC)cc4)cs3)c3ccccn23)cc1 10.2%
COc1cc2[nH]c(=O)n(CCC(=O)N3CCN(c4ccc(Cl)cc4)CC3)c(=O)c2cc1OC -0.0386%
CCn1nc(-c2ccccc2)c(-c2ccccc2)c(C(=O)Nc2ccccc2C#N)c1=O -21.6%
Cc1cc(C)c(/C=C/c2onc(C)c2S(=O)(=O)N2CCC(C(=O)NCc3ccccc3Cl)CC2)c(C)c1 16%
CCOc1ccc(N(CC(=O)Nc2ccccc2CC)S(=O)(=O)c2c(C)noc2C)cc1 -43.9%
Cc1ccc(Cl)cc1NC(=O)C1CCN(S(=O)(=O)c2cccc3nonc23)CC1 -18.3%
COc1cccc(Cn2c(=O)n(CCc3ccccc3)c(=O)c3c2c2cc(OC)ccc2n3C)c1 -9.57%
COc1ccc(C(=O)NNc2ncnc3c2cnn3-c2ccc(C)c(Cl)c2)cc1 -34%
COc1ccc(NC(=O)c2c(NC(=O)c3ccncc3)sc3c2CCC(C(C)(C)C)C3)cc1 (stereo unspecified) -41.4%
Cc1cccc(NC(=O)CSc2nc3ccccc3nc2N2CCCCC2)c1C 8.87% [at 11.5 µM, percent change from vehicle, -100% = no light]
COc1cc(NC(=O)C(Cc2ccccc2)NS(=O)(=O)c2cccc3nsnc23)cc(OC)c1 (stereo unspecified) -8.98%
CC(=O)SC[C@@H](Cc1ccccc1)C(=O)NCC(=O)OCc1ccccc1 -9.11%
O=C(Cn1ccn(-c2ccc(F)c(F)c2)c(=O)c1=O)NCCc1ccccc1 -13.3%
CC(=O)c1cccc(NC(=O)CCc2c(C)nc3c(c(C)nn3-c3ccccc3)c2C)c1 -29.4%
Cc1cc(C)cc(NC(=O)c2cc(S(=O)(=O)N3CCC(C)CC3)cn2C)c1 -26.1%
CCn1c(-c2nonc2N)nc2cncc(CNC3CCNCC3)c21 -3.85%
CCCCNc1nc(Oc2ccc(=O)n(C)n2)nc(N2CCOCC2)n1 9.49%
CCC(CC)C(=O)Nc1ccc2nc(SCC(=O)N3CCc4ccccc43)sc2c1 -30.8%
Cc1ccc(CNC(=O)CN(c2cccc(C)c2C)S(=O)(=O)c2ccccc2)cc1 -34.2%
CC(=O)c1cccc(NC(=O)C2CCCN(C(=O)c3cnn(-c4ccccc4)c3-n3cccc3)C2)c1 (stereo unspecified) -27.1%
Cc1cccc(N2CCN(S(=O)(=O)c3cc(Cl)ccc3Cl)CC2)c1C -8.52%
Cn1c2ccccc2c2cnn(CC(=O)N3CCN(c4cccc(C(F)(F)F)c4)CC3)c(=O)c21 -6.09%
COc1ccc(CC(=O)NCc2ccc3c(c2)CCN3C(C)=O)cc1 1.08%
COc1ccc(-c2nc(SCC(=O)Nc3ccc4c(c3)OCCO4)c(-c3ccc(F)cc3)[nH]2)cc1OC -7.03%
Cc1ccc(-c2ccccc2C#N)cc1 3.01%
O=C(c1ccc2c(c1)N(Cc1ccc(F)cc1)C(=O)c1ccccc1S2(=O)=O)N1CCN(Cc2ccccc2)CC1 -39.3%
CC1=C(C(N)=O)C(c2ccc(F)cc2)n2nc(-c3ccccc3Cl)nc2N1 (stereo unspecified) -0.168%
COc1ccc(S(=O)(=O)c2c(O)c3ccc(C(=O)NCc4ccc(Cl)cc4)cc3[nH]c2=O)cc1 -11.2%
CCOC(=O)C1CCN(C(=O)Cn2ncc3c4ccccc4n(Cc4ccc(F)cc4)c3c2=O)CC1 -16.5%
Cc1csc2nc(COc3ccc(NC(=O)COc4ccccc4)cc3)cc(=O)n12 6.01%
CCN(Cc1ccccc1)C(=O)Cn1c(=O)n(-c2cccc(C)c2)c(=O)c2c1c1cc(C)ccc1n2C -13.5%
Cc1ccc2oc3c(c(=O)c2c1)C(c1ccc([N+](=O)[O-])cc1)N(CCCN1CCOCC1)C3=O (stereo unspecified) -6.99%
CC(=O)N(O)CCCCCNC(=O)CCC(=O)N(O)CCCCCNC(=O)CCC(=O)N(O)CCCCCN -11.2%
C=CCc1ccccc1OCc1nc2ccccc2n1CC -27.7%
O=C(O)Cc1cccc(-c2cc(CCCCCCc3ccc(O[C@H]4O[C@H](CO)[C@@H](O)[C@H](O)[C@@H]4O)c(-c4cccc(CC(=O)O)c4)c3)ccc2O[C@H]2O[C@H](CO)[C@@H](O)[C@H](O)[C@@H]2O)c1 -1.79% [at 0.74 µM, percent change from vehicle, -100% = no light]
O=C(CN1C(=O)c2cccnc2Oc2ccc(Cl)cc21)NCCc1ccccc1 9.54%
CC(C)(C)C(=O)Cn1c(=O)n(-c2ccccc2)c(=O)c2c3c(sc21)CCC3 -10.9%
Cc1cc(NC(=O)CSc2ncc(C(=O)Nc3ccc(Cl)cc3)c(=O)n2C)no1 11.6%
Cc1ccc(Cl)cc1NC(=O)Cn1c(=O)n(Cc2ccccc2)c(=O)c2oc3ccccc3c21 -7.9%
Cc1ccc(CNC(=O)CCc2c(C)nc3nc(C)nn3c2C)cc1 -22%
Cc1ccc(OCC(=O)Nc2cccc(OCc3cc(=O)n4cccc(C)c4n3)c2)cc1C -4.51%
Cc1ccc(CCNC(=O)CCCn2c(=O)c3ccccc3n(Cc3ccccc3C#N)c2=O)cc1 -17.5%
CCc1ccc(O)c(C(=O)c2cnc3cc(-c4ccc(C)cc4)nn3c2)c1 -5.49%
N#Cc1c(C(F)(F)F)cc(-c2cccs2)nc1SCC(=O)Nc1ccccc1F -24.2%
Cc1cc(C)cc(NC(=O)CSc2oc(-c3ccccc3)nc2S(=O)(=O)c2ccccc2)c1 -2.17%
O=C1Cc2cc(CCN3CCN(c4nsc5ccccc45)CC3)c(Cl)cc2N1
CCOc1ccc(-c2cc(C(=O)NCc3ccccc3Cl)c3ccccc3n2)cc1 20.5%
CCn1cc(S(=O)(=O)c2ccccc2)c(=O)c2cc(F)c(N3CCCC3)cc21 -15.2%
Cc1cc(C)cc(NS(=O)(=O)c2ccc3[nH]cc(C(=O)NC4CCCCC4)c(=O)c3c2)c1 -43.6%
Cc1ccc(NC(=O)CCCn2c(=O)c3cccn3c3ccccc32)cc1C -6.58%
CC(C)CC(=O)n1nc(-c2cccnc2)nc1NCc1ccc(F)cc1 -9.67%
COCCCNC(=O)c1ccc(-n2c(-c3ccccc3)cc3c2CCCC3)cc1 7.46%
COc1cccc(-c2nnc(SCC(=O)N3CCC(C)CC3)o2)c1 5.42%
Cc1cc(C)n(-c2nc3ccccc3nc2Nc2ccc(Cl)c(C(=O)OC(C)C)c2)n1 -4.4%
COc1ccc(OCC(=O)OCc2cc(=O)n3nc(-c4cccs4)sc3n2)cc1 10.9%
OC[C@H]1O[C@@H]2O[C@H]3[C@H](O)[C@@H](O)[C@@H](O[C@H]4[C@H](O)[C@@H](O)[C@@H](O[C@H]5[C@H](O)[C@@H](O)[C@@H](O[C@H]6[C@H](O)[C@@H](O)[C@@H](O[C@H]7[C@H](O)[C@@H](O)[C@@H](O[C@H]8[C@H](O)[C@@H](O)[C@@H](O[C@H]1[C@H](O)[C@H]2O)O[C@@H]8CO)O[C@@H]7CO)O[C@@H]6CO)O[C@@H]5CO)O[C@@H]4CO)O[C@@H]3CO -12.6%
COc1ccc2cc(-c3nc(Cl)c4c5c(sc4n3)CC(C)CC5)c(=O)oc2c1 (stereo unspecified) -11.1%
O=C(Cn1c(=O)n(-c2cccc(Cl)c2)c(=O)c2sc3ccccc3c21)NC1CCCCC1 -11%
Cc1ccc(OCC(=O)Nc2cccc(-c3nc4ccccc4o3)c2C)cc1C -55.1%
CNC(=O)C1CCC(Cn2c(=O)c3sccc3n(CC(=O)NCc3ccc(OC)cc3)c2=O)CC1 (stereo unspecified) -19.9%
COc1ccccc1NC(=O)c1c(NC(=O)COc2ccccc2)sc2c1CCCCC2 -5.5%
O=C(CSCc1ccc(F)cc1)N1CCN(c2ccc(Cl)cc2)CC1 -22.1%
Clc1ccc(CN2CCC(CNc3ncnc4onc(-c5ccc(Cl)cc5)c34)CC2)cc1 -33.8%
CCc1c(C)nc(SCc2nc(-c3ccccc3)no2)[nH]c1=O -4.69%
COc1cc(OC)c(OC)cc1/C=C/c1nc2cc3ccccc3cc2c(=O)n1-c1ccc(F)c(Cl)c1 -30.7%
O=C(c1ccc2c(c1)N(Cc1ccccc1F)C(=O)c1ccccc1S2(=O)=O)N1CCN(c2ccccc2F)CC1 -3.95%
CCOc1ccc(C(=O)Nc2ccc3nn(-c4ccc(OC)c(Cl)c4)nc3c2)cc1 -15%
CCN(CC)C(=O)c1sc2c(c1C)c(=O)n(CCc1ccccc1)c(=O)n2Cc1ccc(F)cc1Cl -5.45%
CCN[C@H]1C[C@H](C)S(=O)(=O)c2sc(S(N)(=O)=O)cc21
COc1cccc(C(=O)N(Cc2ccc(N(C)C)cc2)Cc2ccco2)c1 -18.5%
CCc1ccc(CNC(=O)CN2C(=O)CSc3ccc(S(=O)(=O)N4CCOCC4)cc32)cc1 -7.06%
O=C(CSc1nc2c([nH]c3ccccc32)c(=O)n1-c1ccc(Cl)cc1)NCc1ccccc1 -23%
CCc1ccc(S(=O)(=O)NCc2cccn2Cc2cccc(C)c2)cc1 -30.2%
CN1CCN(C(CNC(=O)C(=O)Nc2ccccc2C#N)c2ccc3c(c2)OCO3)CC1 (stereo unspecified) -7.26%
CC1=C(C(=O)Nc2cc(Cl)ccc2C)C(c2ccccc2F)n2ncnc2N1 (stereo unspecified) -8.59%
CC(C)CCCC(C)NCCC(C)C (stereo unspecified) -8.23%
COc1cc(C(=O)Nc2sc3c(c2C(N)=O)CCC(C)C3)cc(OC)c1OC (stereo unspecified) -2.96%
CCn1c(=O)c(=O)n(CC)c2cc(N3CCCCC3)c(NC(=O)c3ccc(OC)c(OC)c3)cc21 0.456%
Cc1ccc2sc(N(CCCN(C)C)C(=O)c3ccco3)nc2c1C -20.9%
COc1ccc(CCNC(=O)CSc2cc(=O)n(C)c3ccccc23)cc1OC 17.9%
COc1ccc(CCNC(=O)Cn2c(=O)c3sccc3n(CC(=O)Nc3cccc(C(F)(F)F)c3)c2=O)cc1OC -13.9%
Cc1ccc(-c2ncc(Cl)cc2-c2ccc(S(C)(=O)=O)cc2)cn1 -0.648%
O=C(NCc1cccc(Cl)c1)c1cnc(N2CCCCC2)c2ccccc12 -3.28%
Cc1cccc(N2CCN(c3ncnc4onc(C)c34)CC2)c1C -8%
CCc1ccc(C2N=C(N)Nc3nc4ccccc4n32)cc1 (stereo unspecified) -11.8%
